This assay deals with PKM1-Myc (pyruvate kinase M, isoform 1, wild type) (UniProt P14618). Put plainly: co-IP; PKM1 with PARP1 (Figure 5D); cells not told.

The chains behind the UniProt entries cited, without tags or fusion partners. Where a name states a change or a piece, a line headed by the entry shows the natural chain unless it says otherwise. A line that says so, or that is headed by a name, gives the form on record, which may keep a tag or linker.
PKM1-Myc (pyruvate kinase M, isoform 1, wild type) (P14618, form named): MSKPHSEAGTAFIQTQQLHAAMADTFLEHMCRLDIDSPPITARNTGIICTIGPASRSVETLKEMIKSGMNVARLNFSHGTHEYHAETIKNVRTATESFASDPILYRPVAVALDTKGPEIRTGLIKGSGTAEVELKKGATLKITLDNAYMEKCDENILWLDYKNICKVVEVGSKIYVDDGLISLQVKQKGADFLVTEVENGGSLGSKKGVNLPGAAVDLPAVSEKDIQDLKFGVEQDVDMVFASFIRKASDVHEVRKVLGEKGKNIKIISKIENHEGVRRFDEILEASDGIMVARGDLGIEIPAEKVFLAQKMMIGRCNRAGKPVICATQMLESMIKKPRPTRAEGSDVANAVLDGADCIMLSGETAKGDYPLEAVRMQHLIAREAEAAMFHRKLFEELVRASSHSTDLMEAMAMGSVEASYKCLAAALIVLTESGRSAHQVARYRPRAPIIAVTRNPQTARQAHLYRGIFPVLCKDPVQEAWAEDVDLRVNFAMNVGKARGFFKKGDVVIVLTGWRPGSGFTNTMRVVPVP
UniProt P09874: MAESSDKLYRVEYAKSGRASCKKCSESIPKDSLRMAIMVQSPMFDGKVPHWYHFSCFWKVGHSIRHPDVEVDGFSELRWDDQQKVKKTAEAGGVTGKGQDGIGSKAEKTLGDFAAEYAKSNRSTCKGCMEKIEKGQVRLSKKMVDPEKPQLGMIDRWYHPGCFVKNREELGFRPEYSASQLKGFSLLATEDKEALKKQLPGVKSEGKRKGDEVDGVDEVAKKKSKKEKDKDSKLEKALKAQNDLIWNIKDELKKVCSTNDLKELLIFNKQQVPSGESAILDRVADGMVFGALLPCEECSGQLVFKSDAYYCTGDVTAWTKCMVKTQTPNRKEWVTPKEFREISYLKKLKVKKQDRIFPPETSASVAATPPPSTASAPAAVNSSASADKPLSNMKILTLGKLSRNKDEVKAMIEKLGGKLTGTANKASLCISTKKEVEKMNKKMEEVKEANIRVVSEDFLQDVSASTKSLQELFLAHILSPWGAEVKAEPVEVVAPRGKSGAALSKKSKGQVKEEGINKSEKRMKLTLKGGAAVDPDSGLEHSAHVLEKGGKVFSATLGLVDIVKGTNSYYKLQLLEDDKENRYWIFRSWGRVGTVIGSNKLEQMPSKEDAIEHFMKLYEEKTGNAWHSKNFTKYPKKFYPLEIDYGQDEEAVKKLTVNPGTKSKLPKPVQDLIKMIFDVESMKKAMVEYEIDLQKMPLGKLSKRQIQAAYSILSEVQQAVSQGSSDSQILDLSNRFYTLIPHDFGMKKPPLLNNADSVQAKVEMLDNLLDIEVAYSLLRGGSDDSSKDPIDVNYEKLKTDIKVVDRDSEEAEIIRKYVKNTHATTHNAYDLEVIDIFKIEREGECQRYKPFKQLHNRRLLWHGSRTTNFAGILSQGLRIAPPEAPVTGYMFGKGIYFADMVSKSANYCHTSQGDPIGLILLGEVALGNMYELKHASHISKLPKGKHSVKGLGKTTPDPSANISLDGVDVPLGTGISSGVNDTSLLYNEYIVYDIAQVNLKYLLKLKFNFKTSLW

Results are given in words; binding and its absence hold for the method and conditions named. In cells and extracts the contact can be indirect. Some results given as binding are weak or reduced against the parent protein; the word gives no strength.

In the case of “PARP1 (in cells, co-IP) (from UniProt P09874 1-1014)”, the binding result was “binds”.

Values taken from PMC11967829.
